# Test results from the supplement of paper PMC3334620.
# Whole data set: some 33,000 sequences, median “E-score (-0.5 to 0.5)” near -0.012, cut for the highest 2% near 0.27. The list shows a part of the results.
# Biological target: T1, Vhr1 (UniProt P40522)
# T1 sequence: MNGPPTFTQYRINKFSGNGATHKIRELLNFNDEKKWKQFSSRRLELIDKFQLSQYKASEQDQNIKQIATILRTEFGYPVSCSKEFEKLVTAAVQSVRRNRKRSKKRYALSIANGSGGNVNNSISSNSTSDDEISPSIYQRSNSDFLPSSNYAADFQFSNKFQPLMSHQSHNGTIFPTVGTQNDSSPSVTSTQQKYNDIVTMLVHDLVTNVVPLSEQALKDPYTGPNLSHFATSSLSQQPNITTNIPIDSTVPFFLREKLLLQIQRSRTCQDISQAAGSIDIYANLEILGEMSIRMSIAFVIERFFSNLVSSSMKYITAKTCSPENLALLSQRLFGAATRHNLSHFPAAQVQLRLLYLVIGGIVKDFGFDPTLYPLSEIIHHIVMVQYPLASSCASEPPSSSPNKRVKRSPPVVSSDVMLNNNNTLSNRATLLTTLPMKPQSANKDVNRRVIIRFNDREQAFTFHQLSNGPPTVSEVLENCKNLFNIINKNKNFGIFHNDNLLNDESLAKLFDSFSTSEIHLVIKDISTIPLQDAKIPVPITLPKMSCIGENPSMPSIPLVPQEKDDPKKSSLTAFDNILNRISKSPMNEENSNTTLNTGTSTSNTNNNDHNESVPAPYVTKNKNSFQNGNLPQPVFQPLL
# Test: PBM E-score (8-mer binding enrichment) (E-score (-0.5 to 0.5)); higher = stronger / more preferred TF binding; most listed sequences are background and not binding sites
# Conditions: protein concentration: 200 nM; construct: GST-full length
# Outline: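 Masliner-normalised scans of fluorescent anti-GST signal were the basis for scoring. That signal came from GST-tagged yeast transcription factors applied at about 100-200 nM to double-stranded universal all-10-mer Agilent arrays on fresh or once-stripped slides. Each ungapped eight-base word, pooled with its reverse complement, received an E-score from the Universal PBM Analysis Suite.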
row,Sequence,PBM E-score
1,ATGAGAGG,-0.0809
2,AGCCCGTA,-0.132
3,ACGAAGAA,0.126
4,AGAGCTTG,-0.146
5,GTACGATA,-0.0257
6,AACGTTTA,-0.151
7,GCCACTCC,0.205
8,TCAAAGGA,-0.146
9,CGCAATGC,0.0459
10,ACCACAGT,0.234
11,ATGTTATG,0.144
12,GAATCTAC,0.0109
13,CTTAGTTC,-0.132
14,ACCGTTCT,-0.161
15,AAGACGGC,-0.0605
16,GAGTGCAA,0.0799
17,ATTGTAAC,0.106
18,CCAGGACG,-0.186
19,GCAGGTCC,0.0837
20,CCACGAAC,0.101
21,ACATGACG,-0.0758
22,GTAGATAC,-0.0265
23,CACCACTA,0.171
24,CAGGACCC,-0.158
25,CGCAGTGA,0.0397

row,Sequence,PBM E-score
1,GACACGCA,0.2
2,ACTAAAAG,-0.0887
3,GCTAGATA,0.0455
4,GCAGAAAC,0.0133
5,AGATCGCG,0.0187
6,AAGTTACG,0.0571
7,CGAGAACC,-0.0949
8,CCCCTAGG,-0.167
9,GAGAGCAC,0.025
10,GACAGTAC,0.0522
11,GTATGGTA,0.249
12,TATAGTCA,0.318
13,CCAGACTC,0.0626
14,AAGCTGAG,0.0164
15,CTAAGAGA,-0.319
16,AGCAAGAC,-0.0506
17,CGGAGGAC,0.00537
18,AACGGGTA,0.14
19,AAAAGTAG,-0.122
20,CACCGACA,0.113
21,AGAGTGAG,0.138
22,ACTTGTCA,0.0667
23,AGACGCGA,0.00886
24,CTTGCGTA,-0.12
25,ACATCCCG,0.231

row,Sequence,PBM E-score
1,ACACGCCG,0.22
2,GTGCCCGA,-0.0982
3,AAGTACTG,-0.0527
4,AAACACAA,-0.206
5,ACAGCATC,-0.0795
6,AATGAGGA,-0.253
7,CTTGCAAG,0.0814
8,ATAGCGTA,-0.0276
9,ATATGTTA,-0.0934
10,TACCCTGA,-0.0328
11,CTGACGAC,0.0741
12,ATGGGAAG,-0.014
13,AACTTGTG,0.167
14,AGAATCTA,-0.0729
15,CGTCCAAA,-0.0449
16,AAACGATA,0.0452
17,ATTTTAGG,-0.0155
18,ATTAATTG,0.131
19,ACGTTCCC,-0.326
20,CCAATAGC,-0.146
21,CTGGACAG,0.0575
22,CACACCTC,0.285
23,CGCTGTGA,0.132
24,AGCCGGTA,0.00445
25,CCCCCCAG,-0.29

row,Sequence,PBM E-score
1,GGCTTGAC,-0.0961
2,ACAATGAA,0.0232
3,CGCGACGC,-0.00297
4,TCAAGCGA,-0.0594
5,CCGGCGCA,0.066
6,CAAGACAC,0.0277
7,CGTACTCA,0.283
8,GGGACAGA,0.0636
9,GATTACAA,-0.00266
10,ATTGGTCG,0.00817
11,AGTGCAAT,-0.0316
12,CCTCGCGC,-0.0292
13,CTCATAAA,-0.00613
14,ATACCTGA,0.187
15,CCTAGACA,-0.042
16,CGATTTGC,-0.0615
17,ATCTAGAG,-0.0639
18,ATCTATGA,0.135
19,AGGCCCCG,-0.311
20,CAGGTGAC,0.23
21,CGGTCCTC,-0.122
22,CGAAACTA,0.0681
23,GGTCATGA,0.239
24,ATGTGTAG,0.201
25,CTCGTGTA,0.147

row,Sequence,PBM E-score
1,GCGATCGC,0.266
2,GGAGGTAA,-0.169
3,AGAGCTCA,-0.0882
4,ACCTCATA,0.0842
5,CGTATGCA,0.164
6,CAGCCAGA,0.148
7,GAAAGCTC,-0.255
8,AAAAGAGT,-0.144
9,AGAGAGGC,-0.331
10,CAATATTG,0.0555
11,AGATTCAA,-0.133
12,AATTGTCA,0.091
13,CGGGGCCC,0.242
14,TAGACAGA,0.0315
15,ACCGATTG,0.0862
16,AACATGCT,0.0146
17,GTAACGAA,0.0425
18,CCCATACG,-0.0146
19,CCGCGGTA,0.153
20,CAACGAGA,-0.0109
21,GCTCTTAC,-0.0832
22,TGCTCAAA,-0.193
23,GAGGGTCA,-0.217
24,GTACATGA,0.143
25,CTGGCATA,0.172

row,Sequence,PBM E-score
1,TCTAGTCA,0.218
2,CACCACGC,-0.174
3,CAACGAGG,0.102
4,CATAAGCC,-0.00741
5,AATGCTCT,-0.224
6,CCCTCCTA,-0.0375
7,GCAAATAC,-0.0972
8,GACTGAGC,0.1
9,CATCATAC,0.216
10,ATTATCGA,0.045
11,GGGGTCGA,0.0657
12,ATATCGAG,0.0583
13,ACGAAGCA,0.00046
14,AAGCATAG,-0.171
15,ACAGTTGG,-0.02
16,GATGGAAC,-0.119
17,GCCTAGTA,0.0251
18,AGAGTTAC,0.0255
19,CATTATAA,-0.113
20,AATGTTTG,-0.116
21,AAAACGGA,0.0536
22,CGTATCAC,0.231
23,CATTGTAC,0.0227
24,GTTTCCTA,-0.206
25,ACAGCAAC,0.123

row,Sequence,PBM E-score
1,ATCCTAAG,-0.00139
2,CAGCGGGG,-0.0743
3,GATACAAA,0.0894
4,AAAGACGT,-0.22
5,CATGGTAG,0.207
6,AGAACGCT,-0.277
7,GACACGGA,0.00283
8,CCAATACG,-0.209
9,AAGAAATT,-0.267
10,GACCTACA,-0.0263
11,AAGCGTGG,0.0736
12,ACTTCAGC,-0.206
13,GGATTACC,0.0515
14,TGTGACAA,0.139
15,GATAGGAA,-0.0552
16,TTCCAGAA,-0.0741
17,CTTACCCA,0.104
18,CTGCAATA,0.00129
19,GAGATACA,0.145
20,AGGATCAG,-0.0775
21,CAGTTGAG,-0.0882
22,GCCTCGGA,-0.121
